Laboratory results published in the supplement of paper PMC10126150.
Sequences with one replicate were seen in a single cluster, so their values are uncertain.

System: ATP
Assay: switch fluorescence ratio, 500 uM ATP over buffer (Cy3 cluster intensity, sum of 5 cycles each) (fold (ratio)); higher = stronger signal-on switching upon ATP binding; sequences stand for … in TCGTCGGCAGCGTCAGATGTGTATAAGAGACAGTTTTTTTTTTTTTTTTTTTTTTTTT…TC
Conditions: aptamer strand: ATP DNA aptamer (quencher-CACCTGGGGGAGTATTGCGGAGGAAGG + anchor), 100 nM annealed; ATP concentration: 500 uM; one replicate
Outline: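 Imaging in selection buffer was followed by imaging after 15 min with 500 uM ATP at 22 °C, for Cy3-labelled switching-strand clusters annealed to 100 nM quencher-labelled ATP aptamer on a modified Illumina MiSeq flow-cell. Five of these buffer/ATP cycles ran, separated by NaOH stripping and re-annealing. The fluorescence ratio per cluster is summed target-cycle over summed buffer-cycle Cy3 intensity, averaged per switch-domain sequence; clusters outside 100-1000 RFU were removed.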
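Also: ATP exposure 15 min at 22 °C before imaging.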

Row | Sequence | switch fluorescence ratio
1 | GAGATGACCA | 1.08
2 | CATAACCCGT | 0.972
3 | GGCCGGAACG | 0.994
4 | GCAGAAGGTG | 1.53
5 | AATGAACCTT | 1.72
6 | GAATAAGGTT | 1.01
7 | ATTAGGGATT | 0.976
8 | ACATAAGTGT | 0.995
9 | TCGGCTGCCA | 0.98
10 | CTCGGGCGCG | 0.984
11 | CTGCGTACAC | 1.92
12 | CACGATTGTC | 1.13
13 | GAACGTATT | 1.06
14 | TCTTGATCCC | 0.978
15 | AGGGTGGTAA | 1.02
16 | GTTCAATAAT | 1.02
17 | CCAAGTAGCG | 0.983
18 | ATTTTTGTG | 0.987
19 | TCACGATCCG | 1.07
20 | TATGCCTGGA | 1.03
21 | GGGTACTGAG | 1.14
22 | ATCAAGATGG | 0.985
23 | GGCTATACTT | 1.25
24 | CGCATTGTCC | 2.64
25 | ATTTGATGGT | 0.958
26 | AGTGGCACTA | 1.01

Row | Sequence | switch fluorescence ratio
27 | AATGGTTGTT | 0.995
28 | TGAGGGCTG | 1.02
29 | TCACGAAGGA | 0.984
30 | GACCAAAAGG | 0.996
31 | GGCCAGGAA | 1.03
32 | GCATTCCGAG | 2.1
33 | CGCAAGGAAT | 1.08
34 | ATGAACGCCC | 1.18
35 | TTTACGCGAT | 1.13
36 | TTGTAAACCA | 1.05
37 | CGAATCCAAT | 1.04
38 | TCCCCGGGCG | 1.19
39 | CAGCTTTA | 1.46
40 | TCATAGTTAG | 0.989
41 | CAGTAGTAC | 1.58
42 | CCGGATACCG | 0.998
43 | TGCGTAATGT | 0.992
44 | TAGTGTCGGC | 0.992
45 | AGGGACTGCT | 1
46 | AAACGTGCGT | 1.07
47 | TGATTGATTC | 0.986
48 | GCGTACCCCC | 2.04
49 | ATAGTCGGAT | 1
50 | CTTTGGTTA | 0.949
51 | TACCCACCGT | 1.36
52 | AATCGAACGG | 1.01

Row | Sequence | switch fluorescence ratio
53 | TTGGTCTAGT | 1
54 | GCGGCTGGAG | 1
55 | GATTGTCGAA | 0.971
56 | TCGAAGGGAA | 0.997
57 | CGCACCCTA | 1.18
58 | TGCACTGGAG | 1.12
59 | CAGAGTCGG | 0.942
60 | GCCGTCCCGC | 1.02
61 | GCTGTACTG | 1.03
62 | CAGGCTGGGT | 0.969
63 | TCTGAGGGCC | 0.978
64 | ATCGGACTTT | 1.04
65 | ACCTCTTTGG | 0.994
66 | GGCTCTGGGT | 0.983
67 | TATGACGCTT | 1.19
68 | TGTGTGACTC | 1.02
69 | GTTTCAATCG | 1.01
70 | TAGGGTTTAT | 1.03
71 | ACGGTATCGC | 1.05
72 | CCTTTTAAG | 0.952
73 | TTGGAAGAAC | 0.95
74 | TCTGAGTGCT | 0.942
75 | TTGAGAGAAC | 0.983
76 | CTTTTGACCC | 1
77 | CCGCCTTAGT | 1.68
78 | GCGGTACCTC | 1.11

Row | Sequence | switch fluorescence ratio
79 | AGTGAGATTT | 0.965
80 | TCCGGACAGT | 1.04
81 | GAGGGGCCAC | 0.991
82 | ATCAAAGTTC | 0.999
83 | GTTTACACCG | 1.06
84 | CTTAGATCAT | 0.994
85 | CCTGTATTCC | 1.1
86 | CAAGCCAAAT | 1.03
87 | GCTAGATTAC | 1.08
88 | GGCACTCGTT | 1.01
89 | AACATGCTTC | 0.974
90 | ATATATTGAT | 1.03
91 | GGTCCGGTCC | 1.03
92 | ATAAACGGAA | 1.09
93 | TGTGAGGCG | 0.878
94 | ACGCAGGGA | 1.02
95 | CTGTCTGGCA | 0.991
96 | CGAGCCGCAT | 1.08
97 | GCGTTTGGTG | 0.979
98 | AGAATTCAGT | 0.966
99 | GGTGCAGTAA | 1.01
100 | ACGGCGCGGA | 1.04
101 | CTTGTTCTCG | 0.976
102 | TTCTTTCAGT | 0.909
103 | CGTTCGGACG | 1.02
104 | GTGTATTTCG | 0.978

Row | Sequence | switch fluorescence ratio
105 | GTGGTATGTT | 1
106 | CAGCCGAAAT | 1.96
107 | GCCGTGGGGT | 1.02
108 | TCCAGTCTTA | 1.01
109 | ATGTGGTGG | 0.958
110 | TATGGAGCCC | 1.08
111 | ATAACTATGG | 1.01
112 | GACTCAAATG | 0.989
113 | GCTTGGGAGG | 0.996
114 | CCCTACCGGC | 1.05
115 | GCTTGCTGTG | 0.939
116 | GCGTTTCGAA | 0.945
117 | CGGCCTCGGG | 0.978
118 | TGCGTGAAGA | 1.03
119 | GTTGAATAAA | 1.02
120 | TAGCACGTCG | 1.05
121 | GGGATGCGGG | 0.961
122 | AGCGCAGGGG | 1.04
123 | GGTCTAGCAT | 1.02
124 | TCGGCCTAAA | 0.994
125 | GCGTCAGTGG | 1.01
126 | AGGTTTTCG | 1
127 | GGACACGTT | 0.983
128 | CGGAGTCGAG | 0.983
129 | TGAACCTACG | 1.27
130 | CCCAGACGCT | 1.2

Row | Sequence | switch fluorescence ratio
131 | ATTAGCCCAT | 1.03
132 | CTGTGCCTGG | 0.926
133 | CCTACGATTC | 5.48
134 | CCTGTATTTA | 0.99
135 | CCCCGTGGAT | 1.28
136 | TCTGTGTCAA | 1.01
137 | AGTGACGGGG | 0.934
138 | ACTCCAAGCG | 1.34
139 | AAGTTAAATG | 0.964
140 | AGCTGGTTAA | 0.976
141 | CAGACTGAAA | 1.05
142 | TCCTTAGTGT | 0.988
143 | GGATTCTATG | 0.975
144 | CATTTAGCTA | 1.04
145 | GGGCATGGCG | 1.04
146 | GTAAGACTAT | 0.971
147 | GTTATTGGCT | 0.964
148 | CTCCAAAGCA | 2.53
149 | ATTTAGCCAC | 1.06
150 | GTGGTGCTCC | 1.05
151 | GTTCTTGCTT | 0.969
152 | TGGATGTGCG | 0.989
153 | AGTGTAGGCG | 1.01
